# Test results published in PubChem BioAssay (Tox21).
# The inconclusive results got no clear call from the source; some entries with a clear call stand among them for comparison. For part of these data: Potencies beside an inconclusive call are fits to weak or partial responses and may not hold up. Calls of active or inactive are those of the source. Unless noted, calls follow the shape of the dose curve; as a rule, active = well fitted curve in the direction sought with a large enough effect in the repeat runs; inconclusive = weak or mixed curves; inactive = no such curve, though single readings can be large; an effect the other way counts as inactive or inconclusive.
# Key:
# [1] = qHTS assay for small molecule agonists of the p53 signaling pathway (AID 651631; calls by dose curve; also: potency is read from the fitted curve at half-maximal effect; nearly all actives have a fitted effect of over 15% in size); conditions: HCT-116 p53RE-bla reporter, beta-lactamase FRET ratio, 16 h; activation: at 73.3 µM (top of the series) unless noted
# How it was run: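 HCT-116 cells carrying a beta-lactamase reporter under p53 response elements were dosed with compound for 16 h at 37 °C. LiveBLAzer B/G FRET substrate was then added for 2 h at room temperature, and fluorescence intensity was read to detect pathway agonism.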
# [2] = qHTS assay for small molecule disruptors of the mitochondrial membrane potential (AID 720635); conditions: HepG2 mitochondrial membrane potential, Mito-MPS dye ratio; ratio activity, negative = MMP loss: at 83.2 µM (top of the series) unless noted; also: potency is read from the fitted curve at half-maximal effect
# How it was run: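 HepG2 cells exposed to compound 1 hr at 37C, then Mito-MPS dye 30 min. Ratio read of aggregate (540/590 nm) versus monomer (490/535 nm) fluorescence.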
# [3] = molecular target: Glucocorticoid receptor (Homo sapiens) (UniProt P04150); assay: qHTS assay to identify small molecule agonists of the glucocorticoid receptor (GR) signaling pathway (AID 720691; active = well fitted activation curve with a large enough effect in the signal ratio in the repeat runs, not every such curve was filed as active; inconclusive = weak or mixed curves, or effect the other way; inactive = no such curve, though single readings can be large or run the other way; the % refers to the signal ratio; also: potency is read from the fitted curve at half-maximal effect); conditions: GR-bla HeLa, beta-lactamase reporter ratio, 18 h; activation: at 62.4 µM (top of the series) unless noted
# UniProt P04150, sequence (P04150 whole entry, looked up): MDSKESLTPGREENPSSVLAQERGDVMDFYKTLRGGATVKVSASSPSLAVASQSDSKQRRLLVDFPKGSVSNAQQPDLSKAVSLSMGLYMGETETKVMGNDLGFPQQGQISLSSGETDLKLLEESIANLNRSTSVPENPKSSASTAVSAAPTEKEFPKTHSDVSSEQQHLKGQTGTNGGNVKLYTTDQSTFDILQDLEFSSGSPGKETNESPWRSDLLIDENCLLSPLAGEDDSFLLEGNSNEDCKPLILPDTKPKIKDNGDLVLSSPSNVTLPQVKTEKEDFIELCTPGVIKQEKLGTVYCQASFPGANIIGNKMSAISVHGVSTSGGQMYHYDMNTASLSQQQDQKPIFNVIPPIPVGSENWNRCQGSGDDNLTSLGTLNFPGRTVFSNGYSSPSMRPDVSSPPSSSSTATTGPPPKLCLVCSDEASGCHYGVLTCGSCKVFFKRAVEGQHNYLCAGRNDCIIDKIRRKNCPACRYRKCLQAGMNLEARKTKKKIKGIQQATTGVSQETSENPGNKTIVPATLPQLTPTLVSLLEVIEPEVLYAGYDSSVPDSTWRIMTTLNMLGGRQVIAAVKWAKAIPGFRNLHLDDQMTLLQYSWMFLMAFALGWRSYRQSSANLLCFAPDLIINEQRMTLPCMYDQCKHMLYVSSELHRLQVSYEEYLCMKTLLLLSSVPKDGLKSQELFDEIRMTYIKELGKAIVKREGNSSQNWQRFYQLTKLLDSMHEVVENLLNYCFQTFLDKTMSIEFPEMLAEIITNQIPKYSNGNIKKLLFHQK
# How it was run: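 Fluorescence intensity from LiveBLAzer B/G FRET substrate (2 h, room temperature) reports beta-lactamase expression driven by the glucocorticoid response element in GR-bla HeLa cells after 18 h compound exposure at 37 C.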
# [4] = molecular target: Glucocorticoid receptor (Homo sapiens) (UniProt P04150); assay: qHTS assay to identify small molecule antagonists of the glucocorticoid receptor (GR) signaling pathway (AID 720692; active = well fitted inhibition curve with a large enough effect in the signal ratio in the repeat runs, not every such curve was filed as active; inconclusive = weak or mixed curves, or effect the other way; inactive = no such curve, though single readings can be large or run the other way; the % refers to the signal ratio; also: potency is read from the fitted curve at half-maximal effect); conditions: GR-bla HeLa, beta-lactamase FRET ratio, dexamethasone-stimulated, 18 h; activity change, negative = inhibition: at 58.5 µM (top of the series) unless noted
# How it was run: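 HeLa GR-bla cells; cmpd + dex 5 nM final, 18 h 37 C; LiveBLAzer B/G FRET substrate 2 h RT; fluorescence intensity read. Antagonist mode, qHTS.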
# [5] = qHTS assay to identify small molecule antagonists of the glucocorticoid receptor (GR) signaling pathway - cell viability counter screen (AID 720693); conditions: GR-bla HeLa viability, CellTiter-Glo luminescence, 18 h, with 5 nM dexamethasone present; viability change, negative = cytotoxic: at 58.5 µM (top of the series); also: potency is read from the fitted curve at half-maximal effect; nearly all actives have a fitted effect of over 55% in size
# [6] = qHTS assay to identify small molecule antagonists of the androgen receptor (AR) signaling pathway - cell viability counter screen (AID 743033; also: potency is read from the fitted curve at half-maximal effect; nearly all actives have a fitted effect of over 45% in size); conditions: AR-bla HEK293 viability, CellTiter-Glo luminescence, 16 h; activity change, negative = cytotoxicity: at 58.5 µM (top of the series) unless noted
# [7] = test system: thyroid hormone receptor (rat, GH3 cells); assay: qHTS assay to identify small molecule agonists of the thyroid receptor (TR) signaling pathway (AID 743066; calls by dose curve; also: potency is read from the fitted curve at half-maximal effect); conditions: GH3.TRE-Luc cells, TR agonist luciferase, 24 h; activation: at 83.9 µM (top of the series) unless noted
# [8] = molecular target: Estrogen receptor (Homo sapiens) (UniProt P03372); assay: qHTS assay to identify small molecule antagonists of the estrogen receptor alpha (ER-alpha) signaling pathway (AID 743069; active = well fitted curve in the direction sought with a large enough effect in the signal ratio in the repeat runs, not every such curve was filed as active; inconclusive = weak or mixed curves, or effect the other way; inactive = no such curve, though single readings can be large or run the other way; the % refers to the signal ratio; also: potency is read from the fitted curve at half-maximal effect; as to activity, negative = inhibition: % is scaled to controls: 0 for no effect and ±100 for the full control effect); conditions: HEK293 ER-alpha-UAS-bla, beta-lactamase ratio, antagonist mode; activity, negative = inhibition: at 69.4 µM (top of the series) unless noted
# UniProt P03372, sequence (P03372 whole entry, looked up): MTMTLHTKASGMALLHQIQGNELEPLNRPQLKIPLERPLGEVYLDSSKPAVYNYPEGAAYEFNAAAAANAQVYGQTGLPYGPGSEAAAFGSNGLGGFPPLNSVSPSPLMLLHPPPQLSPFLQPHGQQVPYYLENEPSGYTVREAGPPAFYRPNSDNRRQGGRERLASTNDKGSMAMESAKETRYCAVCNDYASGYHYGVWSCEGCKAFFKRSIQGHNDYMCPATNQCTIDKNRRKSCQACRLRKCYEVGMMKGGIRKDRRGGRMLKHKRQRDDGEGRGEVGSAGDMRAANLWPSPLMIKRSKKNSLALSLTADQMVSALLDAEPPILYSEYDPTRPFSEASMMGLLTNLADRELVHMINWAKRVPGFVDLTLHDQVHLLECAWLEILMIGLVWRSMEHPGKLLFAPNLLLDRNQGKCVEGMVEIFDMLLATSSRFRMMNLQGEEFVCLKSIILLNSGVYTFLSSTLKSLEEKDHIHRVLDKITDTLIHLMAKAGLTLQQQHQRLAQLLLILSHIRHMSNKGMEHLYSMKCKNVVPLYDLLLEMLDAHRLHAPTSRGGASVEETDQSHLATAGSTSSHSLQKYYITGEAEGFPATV
# How it was run: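 Reporter cells (ER-alpha-bla, HEK293 background) are conditioned overnight in stripped-serum medium (2% charcoal-stripped FBS). Compound and 17beta-estradiol exposure runs 18 hr at 37C, 5% CO2.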
# [9] = qHTS assay to identify small molecule antagonists of the estrogen receptor alpha (ER-alpha) signaling pathway - cell viability counter screen (AID 743074; calls by dose curve;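 also: HEK293 cells carrying ER-alpha-UAS-bla reporter stimulated with 17beta-estradiol; potency is read from the fitted curve at half-maximal effect; nearly all actives have a fitted effect of over 45% in size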)
# [10] = qHTS assay to identify small molecule antagonists of the thyroid receptor (TR) signaling pathway - cell viability counter screen (AID 743064); conditions: GH3.TRE-Luc viability, CellTiter-Fluor, 24 h; activity change, negative = cytotoxic: at 70.3 µM (top of the series) unless noted; also: potency is read from the fitted curve at half-maximal effect; nearly all actives have a fitted effect of over 50% in size
# How it was run: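 GH3.TRE-Luc rat pituitary cells dosed after 4 hr plating, co-stimulated with T3 at 1 nM final, incubated 23.5 h at 37 C. Viability measured in the same wells by CellTiter-Fluor fluorescence after 30 min further at 37 C.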
# [11] = qHTS assay to identify small molecule antagonists of the estrogen receptor alpha (ER-alpha) signaling pathway using the BG1 cell line - cell viability counter screen (AID 743081); conditions: BG1Luc4E2 viability, CellTiter-Fluor, 22 h; activity change, negative = cytotoxicity: at 70.3 µM (top of the series) unless noted;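 also: compound given together with 17beta-estradiol as the ER stimulus; potency is read from the fitted curve at half-maximal effect; nearly all actives have a fitted effect of over 45% in size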
# [12] = molecular target: Peroxisome proliferator-activated receptor gamma (Homo sapiens) (UniProt P37231); assay: qHTS assay to identify small molecule agonists of the peroxisome proliferator-activated receptor gamma (PPARg) signaling pathway (AID 743094; active = well fitted activation curve with a large enough effect in the signal ratio in the repeat runs, not every such curve was filed as active; inconclusive = weak or mixed curves, or effect the other way; inactive = no such curve, though single readings can be large or run the other way; the % refers to the signal ratio; also: potency is read from the fitted curve at half-maximal effect; as to activation: % is scaled to controls: 0 for no effect and ±100 for the full control effect); conditions: HEK293H PPARg-UAS-bla, beta-lactamase FRET ratio, 17 h; activation: at 57 µM (top of the series) unless noted
# UniProt P37231, sequence (P37231 whole entry, looked up): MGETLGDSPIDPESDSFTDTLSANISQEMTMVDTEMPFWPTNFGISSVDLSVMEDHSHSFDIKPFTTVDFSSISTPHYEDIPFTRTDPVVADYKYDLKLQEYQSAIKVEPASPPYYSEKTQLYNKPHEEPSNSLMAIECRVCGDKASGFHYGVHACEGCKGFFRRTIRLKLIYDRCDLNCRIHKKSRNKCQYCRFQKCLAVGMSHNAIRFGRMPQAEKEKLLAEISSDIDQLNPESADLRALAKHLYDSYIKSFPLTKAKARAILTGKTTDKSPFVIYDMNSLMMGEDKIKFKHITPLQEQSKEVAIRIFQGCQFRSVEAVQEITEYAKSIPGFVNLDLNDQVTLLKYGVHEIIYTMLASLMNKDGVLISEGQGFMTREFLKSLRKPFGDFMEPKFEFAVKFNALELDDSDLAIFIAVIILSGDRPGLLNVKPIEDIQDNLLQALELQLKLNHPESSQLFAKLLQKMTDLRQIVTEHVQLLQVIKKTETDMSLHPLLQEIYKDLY
# How it was run: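 Beta-lactamase FRET fluorescence was the read-out after a 1 h room-temperature substrate step, following 17 h compound treatment at 37C of HEK293H cells expressing a UAS-driven bla reporter responsive to PPARg.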
# [13] = qHTS assay for identifying genotoxic compounds that show differential cytotoxicity against isogenic chicken DT40 cell lines with known DNA damage response pathways - wild type cell line (AID 743012); conditions: DT40 wild type chicken cells viability, CellTiter-Glo, 40 h; activity change, negative = cytotoxicity: at 68.4 µM (top of the series) unless noted; also: potency is read from the fitted curve at half-maximal effect; nearly all actives have a fitted effect of over 60% in size
# How it was run: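 Wild type DT40, 300 cells/well, ~0.5 h settle at 37 C/5% CO2; compounds in DMSO added by pintool; 40 h at 37 C/5% CO2; CellTiter-Glo, 30 min RT; luminescence.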
# [14] = qHTS assay to identify small molecule antagonists of the estrogen receptor alpha (ER-alpha) signaling pathway using the BG1 cell line (AID 743080; calls by dose curve; also: % is scaled to controls: 0 for no effect and ±100 for the full control effect; nearly all actives have a fitted effect of over 25% in size); conditions: BG1Luc4E2 ERE-luciferase antagonist mode, luminescence; activity change, negative = inhibition: at 70.3 µM (top of the series) unless noted
# How it was run: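 Antagonist mode: compounds in DMSO were pinned onto BG1-Luc-4E2 cells alongside 17beta-estradiol agonist, incubated 21.5 h, and ERE-driven luciferase measured with ONE-Glo. Cytotoxicity was multiplexed using CellTiter-Fluor fluorescence.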
# [15] = qHTS assay for identifying genotoxic compounds that show differential cytotoxicity against isogenic chicken DT40 cell lines with known DNA damage response pathways - Rad54/Ku70 mutant cell line (AID 743015); conditions: DT40 Rad54/Ku70 mutant viability, CellTiter-Glo, 40 h; activity change, negative = cytotoxicity: at 66.8 µM (top of the series) unless noted; also: potency is read from the fitted curve at half-maximal effect; nearly all actives have a fitted effect of over 60% in size
# [16] = qHTS assay to identify small molecule antagonists of the androgen receptor (AR) signaling pathway using the MDA cell line - cell viability counter screen (AID 743041; also: potency is read from the fitted curve at half-maximal effect; nearly all actives have a fitted effect of over 45% in size); conditions: MDA-kb2 viability, CellTiter-Fluor, 16 h, cells co-treated with R1881 androgen agonist; viability change, negative = cytotoxic: at 70.3 µM (top of the series)
# How it was run: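 Same-well cytotoxicity was assessed by CellTiter-Fluor in MDA-kb2 AR-luc cells after 16 h of compound treatment under R1881 agonism.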
# [17] = qHTS assay to identify aromatase inhibitors - cell viability counter screen (AID 743084); conditions: MCF-7 aro ERE viability, CellTiter-Fluor, 24 h; activity change, negative = cytotoxicity: at 70.3 µM (top of the series) unless noted;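 also: cells stimulated with testosterone during compound exposure; potency is read from the fitted curve at half-maximal effect; nearly all actives have a fitted effect of over 55% in size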
# Tags tell the direction and shape of the fitted curve or compound fluorescence and quenching.
compound,measurement,setting,value
CCCCCCCC(=O)CC[C@@H]1[C@@H](C/C=C\CCCC(=O)OC(C)C)[C@@H](O)C[C@H]1O,Potency,[1],inconclusive: 33.5 µM [activator]
same,Potency,[2],active: 26.6 µM
same,Potency,[3],"inconclusive: 30.1 µM [cytotoxic, single point]"
same,Potency,[4],inconclusive: 26.8 µM [cytotoxic]
same,Potency,[5],"inconclusive: 26.8 µM [cytotoxic, single point]"
same,Potency,[6],"inconclusive: 5.35 µM [cytotoxic, full curve]"
same,Potency,[7],"inconclusive: 29.8 µM [inhibitor, partial curve, poor fit]"
same,Potency,[8],inconclusive: 23.9 µM [partial curve]
same,Potency,[9],active: 26.8 µM
CC1=C[C@H](O)CC(C)(C)[C@H]1/C=C/C(C)=C/C=C/C(C)=C/C=C/C=C(C)/C=C/C=C(C)/C=C/C1=C(C)C[C@@H](O)CC1(C)C,Potency,[1],inconclusive: 33.5 µM [activator]
same,Potency,[2],"inconclusive: 8.41 µM [activator, full curve]"
same,Potency,[4],active: 23.9 µM
same,Potency,[10],active: 23.7 µM
same,Potency,[11],"inconclusive: 1.5 µM [cytotoxic, full curve]"
same,Potency,[12],inconclusive: 23.9 µM [activator]
C#CCC(Cc1cnc2nc(N)nc(N)c2n1)c1ccc(C(=O)N[C@@H](CCC(=O)O)C(=O)O)cc1 (stereo not given in full),Potency,[1],active: 0.266 µM
same,Potency,[13],active: 0.0106 µM
same,Potency,[9],"inconclusive: 0.338 µM [cytotoxic, full curve]"
same,"activity change, negative = inhibition",[14],inconclusive: -19.5%
same,activation,[12],inconclusive: -13.8%
C=Cc1c(C)c2cc3nc(cc4[nH]c(cc5nc(cc1[nH]2)C(C)=C5CCC(=O)OC)c(CCC(=O)O)c4C)[C@@]1(C)C3=CC=C(C(=O)OC)[C@H]1C(=O)OC,Potency,[1],"inconclusive: 29.8 µM [cytotoxic, partial curve]"
same,Potency,[2],active: 1.88 µM
same,Potency,[4],"inconclusive: 15.1 µM [inhibitor, partial curve, poor fit]"
same,Potency,[13],"inconclusive: 26.6 µM [cytotoxic, partial curve]"
same,Potency,[15],"inconclusive: 33.5 µM [cytotoxic, single point]"
same,Potency,[16],"inconclusive: 37.6 µM [cytotoxic, partial curve, poor fit]"
same,Potency,[10],"inconclusive: 33.5 µM [cytotoxic, single point]"
same,"activity, negative = inhibition",[8],inconclusive: -18.4%
same,Potency,[11],inconclusive: 29.8 µM [cytotoxic]
same,Potency,[17],"inconclusive: 29.8 µM [cytotoxic, single point]"
